From PubChem BioAssay AID2546 (National Center for Advancing Translational Sciences (NCATS), 2010)
About 11,000 (3.5%) of roughly 310,000 compounds were called active. Inconclusive results, whose numbers are uncertain, are shown with a selection of clear calls. Calls follow the shape of the dose curve; as a rule, active = well fitted inhibition curve with a large enough effect; inconclusive = small, poorly fitted or top-dose-only effect, or effect the other way; inactive = flat fitted curve, though single readings scatter. No potency is given beside an inconclusive call; the fits are too rough. A structure can be active in one record and inactive in another.

Assay: VP16 counterscreen qHTS for inhibitors of ROR gamma transcriptional activity;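 also: Gal4-VP16 expression switched on by copper sulfate through the metallothionein promoter; nearly all actives have a fitted effect of over 50% in size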
Settings: Drosophila S2 Gal4-VP16 UAS-luciferase, luminescence, 20 h; activity, negative = inhibition: at 53.6 µM (top of the series)
% is scaled to controls: 0 for no effect and ±100 for the full control effect; potency is read from the fitted curve at half-maximal effect; tags tell the direction and shape of the fitted curve.

SMILES | activity, negative = inhibition | Potency
CCc1c(C(C)S(=O)(=O)c2ccc(C)cc2)[nH]c(=O)n1-c1ccc(C)cc1 (stereo not drawn) | inactive: 6.33% | –
CC1CCN(c2ccc(NC(=S)NC(=O)c3ccco3)cc2)CC1 | – | active: 7.08 µM
CCC(=O)Nc1ccc(Cl)c(NC(=S)NC(=O)c2ccco2)c1 | – | inconclusive [activator, partial curve]
CC(C)COc1cccc(C(=O)NC(=S)Nc2cccc(NC(=O)c3ccccc3Cl)c2)c1 | – | active: 5.62 µM
CC(C)Cn1c(=S)[nH]c2cc(Cl)ccc21 | – | inconclusive [inhibitor, single point]
FC(F)Sc1ccc(-n2cc(-c3ccccc3)[n+]3c2CCC3)cc1 | – | inconclusive [inhibitor, single point]
CCC(C)CCN1C(Nc2ccccc2)=NC[C@@H]1CC(C)C (stereo partly drawn) | inactive: 2.27% | –
CCNC(=S)NNC(=O)C1CCCCC1 | – | inconclusive [inhibitor, single point]
S=C(NCc1ccccc1)Nc1cccc2cnccc12 | – | inconclusive [inhibitor, single point]
CCCC(=O)c1ccc(N2CCN(S(=O)(=O)c3ccccc3)CC2)c(F)c1 | – | inconclusive [inhibitor, single point]
S=c1[nH]nc(Cc2ccccc2)n1-c1ccccc1 | – | active: 20 µM
O=C(NNC(=O)c1ccc2ccccc2c1O)c1cccs1 | – | inconclusive [inhibitor, single point]
CCCCOc1ccc(-c2cc(C(=O)NNC(=S)NCC)c3ccccc3n2)cc1 | – | active: 2.51 µM
CCCCCCNC(=O)c1cccc(-c2ccc(C)c3ccccc23)n1 | – | inconclusive [inhibitor, partial curve, poor fit]
CCCNC(=S)N1CCC(NC(=O)c2ccc(OC)cc2)CC1 | inactive: -0.164% | –
COc1cccc(OCC(=O)Nc2ccncc2)c1 | – | inconclusive [inhibitor, single point]
O=C(NCC1CC1)c1ccc2c3n(nc2c1)-c1ccccc1CO3 | – | inconclusive [inhibitor, partial curve]
CC(C)(C)OC(=O)NNC(=S)NCc1ccc(Cl)cc1 | – | inconclusive [inhibitor, single point]
O=c1oc2ccccc2n1CCn1c2ccccc2c2nc3ccccc3nc21 | – | inconclusive [inhibitor, single point]
Cn1nnnc1SCC1=C(C(=O)O)N2C(=O)C(NC(=O)C(O)c3ccccc3)C2SC1 (stereo not drawn) | – | inconclusive [inhibitor, single point]
O=C(Cc1ccccc1F)Nc1ccc(SC(F)F)cc1 | – | inconclusive [activator, single point]
Cc1sc(NC(=O)C2C3CCC(C3)C2C(=O)O)c(C(N)=O)c1-c1ccc(C(C)(C)C)cc1 (stereo not drawn) | inactive: 14% | –
C=CCn1c(SCC(N)=O)nc2sc3c(c2c1=O)CCC3 | – | inconclusive [inhibitor, single point]
Cc1nc2ccc(NS(=O)(=O)c3ccc(F)c(C)c3)cc2[nH]1 | – | active: 7.08 µM
CCOC(=O)C1=C(CSCC(=O)OC)NC(=O)NC1c1cc(C)ccc1C (stereo not drawn) | – | inconclusive [inhibitor, single point]

SMILES | activity, negative = inhibition | Potency
Cc1ccsc1C(=O)N1CCc2ccccc2C1 | – | inconclusive [activator, single point]
Cc1ccc(C(=O)Sc2cccccc2=O)cc1 | – | active: 2.24 µM
COc1ccc(-c2nc(-c3ccc(NC(=O)c4ccc(Br)o4)cc3)no2)cc1OC | – | inconclusive [inhibitor, single point]
COc1ccc(S(=O)(=O)N2CCC(C(=O)N3CCCCCC3)CC2)cc1 | – | inconclusive [inhibitor, partial curve]
CCN(CC)c1ccc(NC(=O)Nc2cccc(C(C)=O)c2)cc1 | – | inconclusive [inhibitor, full curve]
O=C(c1ccc(=O)oc1)N1CCCc2ccccc21 | inactive: -8.72% | –
COc1ccc2c(c1)CC/C2=N\OC(=O)c1ccccc1C | – | inconclusive [inhibitor, partial curve]
Cc1ccc2cc3cc(C(=O)NC4CCCCC4)oc3nc2c1 | – | inconclusive [inhibitor, full curve]
O=C(Nc1ccc(N2CCOCC2)c(Cl)c1)c1ccc(F)cc1 | – | inconclusive [activator, single point]
Cc1ccc(OCCCC(=O)Nc2ccc(Br)cc2)cc1 | inactive: 16.9% | –
Cc1ccc2nc3cc([N+](=O)[O-])cc([N+](=O)[O-])c3cc2c1 | – | active: 2.24 µM
CCOC(=O)N1CCN(/[N+]([O-])=N/Oc2ccc([N+](=O)[O-])cc2[N+](=O)[O-])CC1 | – | active: 7.08 µM
Cc1ccc(CSCCNC(=O)c2ccccc2)cc1 | inactive: 4.76% | –
C=C1CC2C(=O)N(Cc3cc(OC)ccc3OC)C(C(=O)OCC)C1N2C (stereo not drawn) | inactive: 5.14% | –
COc1ccc(CNC(=O)Nc2cccc(C)c2)cc1 | – | inconclusive [activator, single point]
CC(/C=C/c1ccc(C)o1)=C\C(=O)O | – | inconclusive [inhibitor, single point]
CCOC(=O)C1=NN(C(=O)c2ccccc2)C(O)(c2ccc(C)cc2)C1 (stereo not drawn) | – | active: 28.2 µM
COc1ccc(/C(C)=N/NC(=O)CNC(=O)c2ccncc2)c(OC)c1 | inactive: -6.66% | –
CN(C)c1ccccc1C(=O)c1ccccc1N(C)C | – | inconclusive [inhibitor, single point]
C#CCOCCOCCOCCNc1nc(N2CCN(C(=O)[C@H](CCC(=O)O)n3cc(C(N)CO)nn3)CC2)nc(N2CCN(C(=O)[C@H](Cc3cc4ccccc4[nH]3)n3cc(C(N)[C@H](C)CC)nn3)CC2)n1 (stereo partly drawn) | – | inconclusive [inhibitor, single point]
CCOc1ccc(CSCCNC(=S)Nc2ccc(OC)cc2)cc1 | – | active: 7.08 µM
CC(Nc1ncnc2sccc12)c1ccccc1 (stereo not drawn) | – | active: 1.41 µM
O=C1c2ccccc2NC(c2ccc(-c3cccc(Cl)c3)o2)N1O (stereo not drawn) | – | inconclusive [inhibitor, single point]
COc1cccc(-c2ccc3ncnc(NCc4ccccc4OC)c3c2)c1 | – | inconclusive [inhibitor, single point]
Cc1ccc(S(=O)(=O)N[C@@H](Cc2ccccc2)C(=O)CCl)cc1 | – | active: 15.8 µM

SMILES | activity, negative = inhibition | Potency
Cc1cccc(NC(=S)NCCc2c[nH]c3ccccc23)c1 | – | active: 1 µM
O=C(/C=C/NNC(=O)c1ccc(Cl)cc1)c1ccccc1 | – | inconclusive [inhibitor, single point]
CC(NC(=O)COC(=O)c1cc(NS(=O)(=O)c2ccc(Cl)c([N+](=O)[O-])c2)ccc1O)C1CC2CCC1C2 (stereo not drawn) | – | active: 11.2 µM
CCC(C)C(=O)Nc1nc(C)c(-c2csc(Nc3cc(OC)ccc3OC)n2)s1 (stereo not drawn) | – | inconclusive [inhibitor, single point]
CCCc1cc(=O)n2[nH]c(C)c(-c3ccc(Cl)cc3)c2n1 | – | inconclusive [inhibitor, single point]
COc1cccc2oc(-c3ccccc3)cc(=O)c12 | – | inconclusive [inhibitor, partial curve]
O=C(CN1CCN(c2cccc(Cl)c2)CC1)Nc1nccs1 | – | inconclusive [inhibitor, single point]
Oc1nc(Nc2cccc(Cl)c2)sc1/C=C1\C=Nc2ccccc21 | – | inconclusive [inhibitor, single point]
O=C1CCC/C1=C/Nc1ccc2c(c1)OCO2 | – | inconclusive [inhibitor, partial curve]
O=C(C#Cc1ccccc1)c1ccco1 | – | active: 3.16 µM
COc1ccc2c(c1)OC/C(=C/c1ccc(OC)c(OC)c1)C2=O | – | inconclusive [inhibitor, single point]
CCC(=O)N1CCc2nc(-c3ccccc3)sc2C1 | – | inconclusive [activator, partial curve]
O=C(Cc1cccc2ccccc12)Nc1nc2ccccc2[nH]1 | – | active: 8.91 µM
Cc1nnc(NC(=O)c2ccc3c(c2)C(=O)N(CC2CCCO2)C3=O)s1 (stereo not drawn) | – | inconclusive [inhibitor, full curve, poor fit]
CCOC(=O)C1(Cc2cccc(OC)c2)CCCN(Cc2nccn2CC)C1 (stereo not drawn) | – | inconclusive [inhibitor, single point]
O=C(O)c1ccccc1SC1CC(=O)N(C2CCCCC2)C1=O (stereo not drawn) | – | inconclusive [inhibitor, single point]
CCOC(=O)c1csc(NC(=O)c2cc3ccccc3o2)n1 | – | inconclusive [inhibitor, partial curve]
COc1ccc(NC(=O)/C(Cl)=C(/Cl)S(=O)Cc2ccccc2)cn1 (stereo not drawn) | – | active: 1.12 µM
Cc1ccc(N2C(=O)C3C4C=CC(CNC(=S)Nc5ccc(F)cc5)(O4)C3C2=O)cc1 (stereo not drawn) | – | active: 3.98 µM
Cc1cccc(-c2[nH]c(C(C)(C)C)nc2-c2ccc3c(c2)OCO3)n1 | – | active: 7.08 µM
CC(C)(C)OC(=O)NCCc1nnc(SCC(=O)c2ccc(Cl)cc2)o1 | – | inconclusive [inhibitor, single point]
Cc1ccc2nc(Nc3nc(C)cc(C(F)(F)F)n3)nc(C)c2c1 | – | inconclusive [inhibitor, single point]
COc1ccc(OC)c(NC(=O)c2ccccc2N(C)S(=O)(=O)c2ccc(C)cc2)c1 | inactive: -27.3% | –
